Experimental data: the GPR68 mutational scans of Howard et al. (2025)

B1: GPR68, Q15743 (parent)
chain: MGNITADNSSMSCTIDHTIHQTLAPVVYVTVLVVGFPANCLSLYFGYLQIKARNELGVYLCNLTVADLFYICSLPFWLQYVLQHDNWSHGDLSCQVCGILLYENIYISVGFLCCISVDRYLAVAHPFRFHQFRTLKAAVGVSVVIWAKELLTSIYFLMHEEVIEDENQHRVCFEHYPIQAWQRAINYYRFLVGFLFPICLLLASYQGILRAVRRSHGTQKSRKDQIQRLVLSTVVIFLACFLPYHVLLLVRSVWEASCDFAKGVFNAYHFSLLLTSFNCVADPVLYCFVSETTHRDLARLRGACLAFLTCSRTGRAREAYPLGAPEASGKSGAQGEEPELLTKLHPAFQTPNSPGSGGFPTGRLA

Experiments:
[1] = variants of: B1; experiment: cAMP reporter score (Enrich2 score, wild type = 0); higher = more signal; HEK293T, FACS bins
[2] = variants of: B1; experiment: surface expression score (Enrich2 score, wild type = 0); higher = more signal; HEK293T, FACS bins

Row | Variant | cAMP reporter score ([1]; pH 5.5) | cAMP reporter score ([1]; pH 6) | cAMP reporter score ([1]; pH 6, modulator: ogerin) | cAMP reporter score ([1]; pH 6.5, modulator: ogerin) | surface expression score [2]
1 | F76_W77insGSG | -1.55 | -1.72 | -1.59 | -1.64 | -1.71
2 | W77_Q79del | -0.447 | -0.822 | -1.42 | -1.15 | 0.266
3 | Y70S | -1 | – | -1.29 | -0.639 | -1.3
4 | Y70W | -1.64 | -1.48 | – | -1.53 | 0.333
5 | Y70N | 0.718 | – | -0.057 | 1.83 | -2.05
6 | Y70T | -0.009 | 0.921 | -0.358 | -0.724 | -0.35
7 | Y70F | -0.489 | -0.586 | -0.778 | -0.556 | 1.17
8 | Y70H | -0.417 | -0.4 | -0.693 | -0.335 | -0.296
9 | Y70M | -0.224 | -0.146 | -0.896 | -0.333 | 0.02
10 | Y70Q | 0.307 | – | – | – | –
11 | Y70V | -0.744 | -1.17 | -0.221 | -0.735 | -0.422
12 | Y70L | -0.555 | -0.551 | -1.03 | -0.894 | 1.44
13 | Y70P | -0.718 | -0.444 | -0.621 | -1.67 | -2.53
14 | Y70I | -0.185 | 0.598 | 0.749 | 0.659 | –
15 | Y70G | -1.13 | – | -1.16 | -0.907 | –
16 | Y70R | -4.62 | – | -1.42 | -2.2 | 0.02
17 | S73_L74del | -2.32 | -1.53 | -2.17 | -1.25 | -2.98
18 | Q83_H84insGS | -0.877 | -0.615 | -1.42 | -1.3 | 1.43
19 | Q79_Y80del | -0.86 | -1.32 | -1.09 | -0.407 | 1.36
20 | Q83L | 0.643 | -0.749 | -0.522 | -0.218 | -0.338
21 | Q83S | -0.29 | -0.496 | -0.188 | -0.51 | 1.3
22 | Q83D | 0.064 | -0.893 | -0.649 | -1.81 | –

Row | Variant | cAMP reporter score ([1]; pH 5.5) | cAMP reporter score ([1]; pH 6) | cAMP reporter score ([1]; pH 6, modulator: ogerin) | cAMP reporter score ([1]; pH 6.5, modulator: ogerin) | surface expression score [2]
23 | Q83W | -0.447 | -0.949 | -0.507 | -0.758 | -0.414
24 | Q83V | -1.69 | -1.72 | -2.3 | -1.61 | -0.29
25 | Q83N | 0.505 | 1.16 | 2.12 | 1.84 | 1.31
26 | Q83P | -1.85 | -0.564 | -1.23 | -0.903 | -0.272
27 | Q83M | -0.41 | -1.09 | -0.719 | -0.871 | -0.642
28 | Q83E | -0.146 | -0.403 | -0.101 | -0.691 | -0.645
29 | Q83G | -0.774 | -0.967 | -1.13 | -0.675 | 0.673
30 | Q83Y | -0.932 | -0.598 | -1.43 | -0.748 | -0.274
31 | Q83F | -1.35 | -0.822 | -1.31 | -1.46 | -1.16
32 | Q83A | 0.006 | -0.092 | 0.285 | -0.852 | 0.648
33 | Q83K | -0.259 | -1.07 | -0.665 | -0.86 | 0.629
34 | Q83H | 0.228 | -0.64 | 0.088 | -0.737 | -0.91
35 | Q83C | -0.742 | -0.423 | -1.3 | -0.96 | –
36 | Q83T | -0.731 | -0.89 | -1.15 | -1.19 | 0.407
37 | Q83I | -0.964 | – | -0.686 | -0.98 | -1.29
38 | Q83R | 0.11 | – | 0.592 | -0.249 | 1.4
39 | L78del | -1.53 | -1.88 | -1.85 | -1.12 | –
40 | H84_D85insGSG | -1.56 | -1.28 | -2.19 | -1.29 | 0.638
41 | H84_N86del | -1.95 | -1.44 | -1.1 | -1.63 | -1.83
42 | Q79_Y80insGSG | -1.64 | -1.36 | -2.24 | -1.22 | -2.21
43 | W77_L78insGS | -1.31 | -0.534 | -2.14 | -0.904 | -2.24
44 | C72_L74del | -1.64 | – | -1.59 | – | -1.96

Row | Variant | cAMP reporter score ([1]; pH 5.5) | cAMP reporter score ([1]; pH 6) | cAMP reporter score ([1]; pH 6, modulator: ogerin) | cAMP reporter score ([1]; pH 6.5, modulator: ogerin) | surface expression score [2]
45 | N86_W87insG | -1.03 | -1.14 | -1.54 | -1.15 | 0.64
46 | Y80_L82del | -0.054 | -1.14 | -1.62 | -0.946 | 0.724
47 | I71del | -2.04 | -1.75 | -1.89 | -1.02 | -2.38
48 | S88H | -1.38 | -0.581 | – | 1.49 | 0.516
49 | S88L | -0.106 | -0.279 | -0.309 | -1.59 | 0.225
50 | S88E | 0.514 | -0.691 | 0.684 | -0.388 | 1.04
51 | S88T | 0.421 | 2.23 | 0.805 | – | -0.372
52 | S88A | 0.419 | -0.062 | 0.138 | 0.139 | 1.13
53 | S88C | -0.717 | -0.686 | -0.734 | -0.274 | -1.08
54 | S88P | 0.816 | – | 0.632 | 0.826 | 0.58
55 | S88R | 0.329 | – | 0.038 | -0.786 | 1.44
56 | S88Q | 1.19 | 0.347 | – | 0.051 | 1.28
57 | S88F | -1.59 | -0.284 | -0.917 | – | 0.645
58 | S88M | 1.3 | -0.337 | 1.01 | -0.122 | 1.51
59 | S88D | -0.374 | – | -1.3 | -0.609 | 0.78
60 | S88Y | -0.872 | -1.02 | -0.934 | -1.18 | 0.672
61 | S88V | 1.17 | 1.97 | 0.719 | 2.18 | 0.558
62 | S88G | -0.742 | – | -0.506 | 0.344 | 0.416
63 | S88K | 0.594 | 0.94 | 0.476 | -0.022 | 1.3
64 | W77del | -1.73 | – | – | -0.991 | -1.44
65 | I71_C72insG | -1.5 | -2.05 | -0.113 | -0.529 | -1.52

Scores with a large standard error are left out. The source holds two more conditions with little spread; they are left out. Names with del lack the residues named; names with ins carry added residues between the positions named. For part of these data: How much ogerin was present is not stated here.
